Assay results as given in PubChem BioAssay AID1159614 (National Center for Advancing Translational Sciences (NCATS), 2016).
The campaign covered roughly 45,000 compounds. About 65 (0.1%) were called active. The call rests on the fitted dose curve; in most records, active means well fitted activation curve with a large enough effect; inconclusive means small, poorly fitted or top-dose-only effect; inactive means no such curve, though single readings can be large or run the other way. Some of the results follow.

These molecules were tested against Galactocerebrosidase (Homo sapiens) (UniProt P54803) (assay: A Novel Cell-Based Assay to Identify Small Molecules for B -Galactocerebrosidase). Details: 145M-Twi-hGALC-G270D cells, HMU-beta-Gal fluorescence, 48 h; series mostly up to 57.5 µM; activation: at the top concentration.
In short: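 qHTS, 1536-well; 145M-Twi-hGALC-G270D cells (WT line also made) in DMEM/F12 + 10% FBS; compound incubation on live cells; HMU-β-gal 0.1 mM final, pH 5.2, NaTC; carbonate stop; fluorescence increase = enhanced residual activity.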
Further: 0% is about no effect; nearly all actives have a fitted effect of over 65% in size.

UniProt P54803, sequence (P54803 whole entry, looked up): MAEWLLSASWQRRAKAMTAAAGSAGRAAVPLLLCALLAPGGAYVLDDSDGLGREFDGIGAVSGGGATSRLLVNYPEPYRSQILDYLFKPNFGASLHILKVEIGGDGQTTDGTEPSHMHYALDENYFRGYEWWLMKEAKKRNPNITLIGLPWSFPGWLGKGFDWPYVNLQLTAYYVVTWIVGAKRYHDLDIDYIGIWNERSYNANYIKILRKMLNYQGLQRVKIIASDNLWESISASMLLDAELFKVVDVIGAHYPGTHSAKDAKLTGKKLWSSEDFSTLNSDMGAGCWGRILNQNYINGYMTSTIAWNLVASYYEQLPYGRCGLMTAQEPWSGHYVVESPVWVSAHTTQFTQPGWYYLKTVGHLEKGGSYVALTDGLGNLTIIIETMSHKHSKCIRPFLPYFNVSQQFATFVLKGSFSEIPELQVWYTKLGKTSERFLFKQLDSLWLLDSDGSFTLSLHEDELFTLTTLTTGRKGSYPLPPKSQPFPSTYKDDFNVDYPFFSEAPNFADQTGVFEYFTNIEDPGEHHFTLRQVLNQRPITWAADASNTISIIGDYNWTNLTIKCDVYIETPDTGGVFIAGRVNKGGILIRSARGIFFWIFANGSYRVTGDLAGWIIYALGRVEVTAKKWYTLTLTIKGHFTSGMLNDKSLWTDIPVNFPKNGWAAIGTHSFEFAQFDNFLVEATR

activation, inactive:
CCS(=O)(=O)c1nc(S(=O)(=O)c2ccc(Cl)cc2)c(NCc2ccccc2Cl)s1 -25.9%
CCOc1ccc(CNC(=O)c2ccc(Sc3ccc(Cl)cc3)c(NC(C)=O)c2)cc1OC -1.82%
Cc1cc(=O)n2nc(N3CCC(C(=O)Nc4ccc(C)c(Cl)c4)CC3)sc2n1 -2.91%
Cc1ccc(N(Cc2cccs2)C(=O)c2ccc(Br)o2)cc1 11.9%
CCSc1ncc(Cl)c(C(=O)Nc2nc3ccc(OC)cc3s2)n1 -10.5%
COc1ccc(CNC(=O)Cc2c(C)c3c(cc(C)c4c(C)c(C)oc43)oc2=O)cc1 -3.07%
Cc1c(C)c2c(c(C)c1O)CCC(C)(COc1ccc(CC3SC(=O)NC3=O)cc1)O2 (stereo not drawn) -9.69%
CCCCC(CC)CNC(=O)c1ccc2c(=O)n(Cc3ccc(OC)cc3)c(=O)[nH]c2c1 (stereo not drawn) -3.13%
Cn1nc(C(=O)NCc2ccc(Cl)cc2)c2c1-c1ccccc1SC2 -13.2%
CCOc1cc(C2c3c(-c4ccc(Br)cc4)n[nH]c3C(=O)N2c2ccc(Cl)cc2)ccc1O (stereo not drawn) -3.34%
COc1ccc(CNC(=O)CCS(=O)(=O)c2ccc3c(c2)oc(=O)n3C)cc1 -18.6%
CCc1nonc1NC(=O)c1oc2ccccc2c1C -12.7%
Cc1ccc(CNC(=O)c2ccc3c(O)c(S(=O)(=O)c4ccccc4)c(=O)[nH]c3c2)cc1 -26.3%
CCOC(=O)N1CCC(NC(=O)c2ccc3c(c2)N(Cc2ccc(F)cc2)C(=O)c2ccccc2S3(=O)=O)CC1 7.07%
CCOc1ccccc1NC(=O)c1nnn(CC(=O)Nc2ccc(OC)c(OC)c2)c1N -10.8%
O=C(CSc1nc2ccccc2nc1Cc1ccc(Cl)cc1)NCCc1ccccc1 -17.5%
CCOc1ccc(NC(=O)C(NS(=O)(=O)c2ccc3c(c2)CCN3C(C)=O)C(C)C)cc1 (stereo not drawn) 15.4%
CCCCC(=O)Nc1ccc2nc(SCC(=O)N3CCCC3)sc2c1 -17.2%
COc1ccccc1-c1cc(C(=O)N2CCCCC2C)no1 (stereo not drawn) -9.88%
Cc1ccc(C)c(N2CCN(Cc3csc(C)c3C)CC2)c1 0.875%
COc1ccc(CNC(=O)c2nn(-c3ccccc3C)nc2CO)cc1 -11.2%
Nc1c(-c2nc(-c3cccs3)no2)nnn1-c1cccc(Cl)c1 -8.22%
COc1ccc(OC)c(C(C)NC(=O)Cn2c(=O)cc(C)c3c(C)nn(-c4ccc(C)cc4)c32)c1 (stereo not drawn) -1.77%
CCOc1ccccc1CC1C(=O)Nc2ccc(Br)cc21 (stereo not drawn) -7.13%
COc1cccc(CNC(=O)C(NS(=O)(=O)c2ccc3c(c2)CCN3C(C)=O)C(C)C)c1 (stereo not drawn) -1.94%
CCc1ccc(Nc2ncnc3c2cnn3-c2cc(Cl)ccc2C)cc1 -19.3%
COC(=O)c1ccc(Cn2c(=O)cc(C(F)(F)F)c3c(C)nn(C)c32)cc1 -2.94%
CCCn1c2ccccc2c2cnn(CC(=O)NCCc3ccccc3)c(=O)c21 -6.69%
CCn1cc(C(=O)OCC(=O)Nc2ccc(F)cc2F)c(=O)c2ccc(C)nc21 4.26%
Cc1cccc(-c2nc(Cn3c(=O)cc(-c4ccccc4)c4c(C)nn(C)c43)c(C)o2)c1 -16.8%
Cc1cc(N2CCCCC2)nc2ccc(NC(=O)/C=C/c3ccccc3Cl)cc12 -12.8%
Cc1ccccc1Cn1c(=O)n(CCc2ccccc2)c(=O)c2ccccc21 6.86%
CCOc1ccc(S(=O)(=O)N(CC(=O)NCCSc2ccccc2)c2ccccc2)cc1 -9.35%
CCN(c1ccc(OC)cc1)S(=O)(=O)c1ccc2[nH]c(=O)ccc2c1 -12.4%
O=C(NCc1ccc(Cl)cc1)C1CCCN(c2nc3ccccc3n3cccc23)C1 (stereo not drawn) -9.41%
O=C(Cn1c2ncccc2c(=O)n1-c1ccccc1)Nc1ccc(F)c(F)c1 -0.502%
CCCCOc1cccc(NC(=O)CSc2nnc(C)s2)c1 -41.9%
Cc1cc(Nc2cccc(C(F)(F)F)c2)nc2ccc(NC(=O)c3ccc(=O)[nH]c3)cc12 -5.66%
O=C(NCc1ccc(F)cc1)c1c(O)nc2ccccn2c1=O -13%
CN(Cc1ccccc1)c1ncnc2onc(-c3ccc(F)cc3)c12 -27.7%
O=C(COc1ccccc1)Nc1nnc(S(=O)(=O)N2CCCC2)s1 5.78%
CCOc1ccc(-n2c(=O)c3c4c(sc3n(CC(=O)Nc3cccc(C(F)(F)F)c3)c2=O)CCCCC4)cc1 -22.6%
COc1ccccc1NC(=O)C(Cc1ccccc1)NS(=O)(=O)c1ccc2c(c1)c(=O)n(C)c(=O)n2C (stereo not drawn) -0.926%
O=C(OCC1CCCO1)c1ccc2c(c1)N(Cc1ccccc1Cl)C(=O)c1ccccc1S2(=O)=O (stereo not drawn) -11%
O=C(Nc1ccc2oc(-c3ccc4ccccc4c3)nc2c1)c1ccccc1F -8.78%
CC(NC(=O)CCNS(=O)(=O)c1cccc2nsnc12)c1ccccc1 (stereo not drawn) -9.5%
O=C(Nc1cccc(Cl)c1)c1cnc[nH]1 -5.66%
COc1ccc(Br)cc1C1Sc2ccccc2NC2=C1C(=O)c1ccccc12 (stereo not drawn) -1.99%
Cc1ccc2c(=O)cc(CSCC(=O)Nc3nnc(C)s3)[nH]c2c1 -3.12%
COc1ccc(OC)c(NC(=O)CSc2nc3ccccc3nc2N2CCCCC2)c1 -20.2%
COc1ccc(NC(=O)C2CCC(CNS(=O)(=O)c3ccc(Br)s3)CC2)cc1OC (stereo not drawn) -3.98%
CCCC(=O)OCc1cnc(C)c2oc(=O)c(C(=O)Nc3ccccc3)cc12 -7.63%
O=C(Nc1ccccc1)c1ccc(Br)c(S(=O)(=O)N2CCCCC2)c1 1.59%
COc1ccc(NC(=O)COc2ccc(S(=O)(=O)NC3CCCCC3)cc2)cc1OC -12.1%
COc1cc(Cl)c(C)cc1NC(=O)Cn1ncc2c([nH]c3ccccc32)c1=O 2.04%
COc1cccc(C(c2c(O)cc(C)n(Cc3ccco3)c2=O)N2CCN(c3ccccc3)CC2)c1 (stereo not drawn) -25.6%
O=C(CSc1nccn1Cc1ccc(Cl)cc1)Nc1ccc2c(c1)OCCO2 -14.4%
CCOCCCn1c(SCC(=O)Nc2ccc(C)cc2)nc2ccccc2c1=O -3.19%
CCc1ccccc1NC(=O)c1ccc2c(c1)N(Cc1cc(C)ccc1C)C(=O)c1ccccc1S2(=O)=O -5.48%
Cc1cc(C)n(C(C)CC(=O)NCc2ccc(N(C)C)cc2)n1 (stereo not drawn) -16%
COC(=O)c1cc2sccc2n1Cc1nc(-c2ccc(Cl)cc2)oc1C -10.9%
Cc1cc(C)c(NC(=O)C2CCN(c3nnc(C)c4c(C)n(-c5ccccc5)nc34)CC2)c(C)c1 -14.6%
COc1ccccc1NC(=O)C1=C(C)Nc2nc(SCc3ccccc3C)nn2C1CC(C)C (stereo not drawn) -18.1%
